The source of these data is US20090104205A1 (AstraZeneca / MedImmune, published 2009).

Test [1] has as its target T1, C-terminal truncated RSV F protein (secreted, from recombinant baculovirus) (respiratory syncytial virus, UniProt P03420 26-524).
T1 construct: also called immobilized F protein
As to the kind of experiment: SPR (BIAcore), F protein amine-coupled, Kd = kd/ka.

Test [2] deals with T1, C-terminal truncated RSV F protein …. As to the kind of experiment: SPR (BIAcore), F protein amine-coupled, Mab injected at 25-300 nM. In general terms: Surface plasmon resonance follows binding to a sensor surface in real time, without labels.

B1: chimeric 1129 (murine 1129 VH and VL joined to human C-Gamma1 and C-Kappa) (antibody, V domains shown)
VH: QVELQESGPGILQPSQTLSLTCSFSGFSLSTSGMSVGWIRQPSGEGLEWLADIWWDDKKDYNPSLKSRKTISKDTSSNQVFLKITGVDTADTATYYCARSMITNWYFDVWGAGTTVTVSS
VL: DIQLTQSPAIMSASPGEKVTMTCSASSSVGYMHWYQQKSSTSPKLWIYDTSKLASGVPGRFSGSGSGNSYSLTISSIQAEDVATYYCFQGSGYPFTFGGGTKLEIK
notes: also called CH1129; ch1129
By Kd is commonly meant a measure of binding affinity in units of concentration. A word on the koff: it is a measure of how fast the partners let go of each other. As a reminder, the kon is the second-order rate constant of association. Consider B1, for which the equilibrium dissociation constant (Kd) in test [1] turned out to be 1.5 nM. Besides, in test [2], the koff was determined as 7.5e-05 s⁻¹, the kon stood at 50000 M⁻¹ s⁻¹ and the “t1/2 (dissociation half-life)” value worked out at 2.6 h.
